Results taken from PubChem BioAssay AID1347165 (National Center for Advancing Translational Sciences (NCATS), 2019).
The whole screen tested about 220,000 compounds, of which about 5,700 (2.6%) were called active. The inconclusive results got no clear call from the source; some entries with a clear call stand among them for comparison. Calls follow the shape of the dose curve; as a rule, active = well fitted inhibition curve with a large enough effect; inconclusive = small, poorly fitted or top-dose-only effect; inactive = no such curve, though single readings can be large or run the other way. Potencies of inconclusive entries are doubtful fits and often do not repeat.
Also: nearly all actives have a fitted effect of over 70% in size.
For activity change, negative = inhibition in this document: 0% is about no effect.
Potency is read from the fitted curve at half-maximal effect; tags tell the direction and shape of the fitted curve.

What follows are compounds tested against Lysine-specific demethylase 5B (Homo sapiens) (UniProt Q9UGL1) (assay: Primary screen for KDM5B Histone Demethylases FDH-coupled qHTS). Conditions: FDH-coupled NADH fluorescence (FDH is formaldehyde dehydrogenase); activity change, negative = inhibition: at 57.7 µM (top of the series) unless noted.
Sequence of UniProt Q9UGL1 (Q9UGL1 whole entry, looked up): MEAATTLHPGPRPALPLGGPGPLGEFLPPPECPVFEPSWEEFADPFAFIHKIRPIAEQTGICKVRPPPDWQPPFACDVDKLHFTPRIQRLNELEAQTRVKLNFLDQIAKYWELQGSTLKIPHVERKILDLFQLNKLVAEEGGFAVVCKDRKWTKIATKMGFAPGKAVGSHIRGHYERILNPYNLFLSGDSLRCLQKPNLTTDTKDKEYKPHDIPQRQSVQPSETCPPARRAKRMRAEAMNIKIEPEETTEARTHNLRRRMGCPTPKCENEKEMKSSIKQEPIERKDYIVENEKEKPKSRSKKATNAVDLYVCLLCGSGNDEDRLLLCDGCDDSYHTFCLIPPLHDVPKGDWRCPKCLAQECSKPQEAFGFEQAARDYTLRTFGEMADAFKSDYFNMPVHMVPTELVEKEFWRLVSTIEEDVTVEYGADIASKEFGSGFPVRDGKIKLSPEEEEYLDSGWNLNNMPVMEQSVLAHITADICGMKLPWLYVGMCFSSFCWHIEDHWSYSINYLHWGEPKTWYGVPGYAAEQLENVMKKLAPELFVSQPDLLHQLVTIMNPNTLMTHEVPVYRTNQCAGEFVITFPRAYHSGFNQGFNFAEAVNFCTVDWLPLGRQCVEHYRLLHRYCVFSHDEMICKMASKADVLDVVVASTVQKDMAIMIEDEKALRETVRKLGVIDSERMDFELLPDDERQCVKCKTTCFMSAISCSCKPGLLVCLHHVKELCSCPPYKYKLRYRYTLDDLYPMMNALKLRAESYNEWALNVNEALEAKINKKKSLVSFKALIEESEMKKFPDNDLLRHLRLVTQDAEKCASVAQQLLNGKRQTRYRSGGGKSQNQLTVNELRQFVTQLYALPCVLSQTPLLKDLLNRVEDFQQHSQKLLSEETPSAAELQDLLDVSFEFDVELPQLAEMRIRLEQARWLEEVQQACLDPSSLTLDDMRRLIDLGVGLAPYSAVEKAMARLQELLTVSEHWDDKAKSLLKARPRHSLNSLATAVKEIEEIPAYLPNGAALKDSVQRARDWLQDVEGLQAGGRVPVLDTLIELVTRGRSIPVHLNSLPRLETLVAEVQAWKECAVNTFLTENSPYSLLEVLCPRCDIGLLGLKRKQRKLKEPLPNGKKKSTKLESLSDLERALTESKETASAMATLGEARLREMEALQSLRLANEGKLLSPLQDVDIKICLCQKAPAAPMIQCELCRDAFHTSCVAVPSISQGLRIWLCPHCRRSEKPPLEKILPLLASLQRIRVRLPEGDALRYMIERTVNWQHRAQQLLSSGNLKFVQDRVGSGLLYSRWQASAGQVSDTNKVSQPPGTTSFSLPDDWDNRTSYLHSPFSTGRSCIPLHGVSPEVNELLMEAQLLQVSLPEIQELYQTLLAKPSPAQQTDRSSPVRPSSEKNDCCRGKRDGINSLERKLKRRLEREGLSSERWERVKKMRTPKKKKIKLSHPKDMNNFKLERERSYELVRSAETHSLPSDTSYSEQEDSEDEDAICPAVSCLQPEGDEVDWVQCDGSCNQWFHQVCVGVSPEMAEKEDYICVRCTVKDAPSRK
Method in brief: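 Coupled FDH/NAD⁺ fluorescence readout. KDM5BΔAP 200 nM final; compound titration, 10 min RT preincubation; substrate mix 12.5 µM H3K4me3, 25 µM 2-OG, 50 µM Fe(II), 100 µM ascorbate, 0.25 mM NAD⁺, 0.25 U/mL FDH; ΔRFU over 30 min.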
With `CC(NC(=O)c1cccnc1N(C)C)c1ccc(F)cc1` (configuration not stated) the “activity change, negative = inhibition” value was inactive: -8.24%.
With `NC(=O)c1ccccc1NC(=O)c1ccc(-c2ccc(Br)cc2)o1` the Potency was inconclusive: 1.58 µM [inhibitor, full curve, poor fit].
With `Cc1cc(C)c2cc(C(=O)O)[nH]c2c1` the Potency was inconclusive: 20 µM [inhibitor, partial curve, poor fit].
For `O=C(NCCc1ccccn1)c1ccnc(-c2nnc3ccc(Nc4ccccc4)nn23)c1`, the Potency was inconclusive: 31.6 µM [inhibitor, single point].
With `c1coc(CNCc2cccc3ccccc23)c1` the Potency was inconclusive: 20 µM [inhibitor, single point].
`CCN(CC)S(=O)(=O)c1ccc(C(=O)Nc2nn[nH]n2)cc1` was tested, and the “activity change, negative = inhibition” value was inactive: 14.4%.
`COc1cccc(CN2CCC3(CC2)OC(=O)N(Cc2ccccc2)C3(C)c2ccccc2)c1` (configuration not stated) was tested, and the Potency was inconclusive: 31.6 µM [inhibitor, partial curve, poor fit].
`CCCCOc1ccc2c(=O)c(Oc3ccc(OC)cc3)c(C(F)(F)F)oc2c1` was tested, and the “activity change, negative = inhibition” value was inactive: -12.8%.
With `CCN(CC)CCCNC(=O)c1ccc(-c2nc(CN3CCc4ccccc43)c(C)o2)cc1` the Potency was inconclusive: 28.2 µM [inhibitor, single point].
In the case of `O=C(c1ccc(F)cc1)N1Cc2[nH]cnc2C[C@H]1c1nc(-c2ccc3c(c2)OCO3)no1`, the Potency is reported as active: 39.8 µM.
`CCOc1cc(C(=O)OCC(=O)Nc2ccc(F)cc2F)ccc1OCC(=O)N1CCCCC1` was tested, and the “activity change, negative = inhibition” value was inactive: -8.18%.
In the case of `O=C(COc1ccccc1)N1C[C@@H]2C[C@H](C1)c1ccc(-c3cccc(C(F)(F)F)c3)c(=O)n1C2`, the Potency is reported as active: 22.4 µM.
With `CCN1c2cc(C(=O)Nc3cccc(C)c3)ccc2C(=O)N2CCCCC21` (configuration not stated) the Potency was inconclusive: 25.1 µM [inhibitor, partial curve, poor fit].
For `CCc1nc(-c2c3n(c(=O)n(CC(=O)Nc4cccc(F)c4)c2=O)CCCC3)no1`, the “activity change, negative = inhibition” value was inactive: 14.4%.
With `CCCCOc1ccc(/C=C(/C#N)c2nc3ccccc3[nH]2)cc1OCC` the Potency was inconclusive: 28.2 µM [inhibitor, single point].
In the case of `CCn1cc(C(=O)N2CCc3nc(NC)nc(C(=O)N4CCCC4)c3C2)c(C)n1`, the Potency is reported as inconclusive: 28.2 µM [inhibitor, single point].
In the case of `CCOP(=O)(OCC)c1nc(-c2ccccc2)oc1N(C)C`, the Potency is reported as inconclusive: 22.4 µM [inhibitor, partial curve, poor fit].
For `O=C(O)c1ccc(S(=O)(=O)c2ccccc2C(=O)O)c([N+](=O)[O-])c1`, the Potency was inconclusive: 22.4 µM [inhibitor, partial curve, poor fit].
In the case of `CCCOc1cccc(-c2cc(C(=O)N/N=C/c3cccnc3)c3ccccc3n2)c1`, the Potency is reported as inconclusive: 39.8 µM [inhibitor, single point].
With `O=C(COc1ccccc1Cl)OCC(=O)c1ccc(-c2ccccc2)cc1` the “activity change, negative = inhibition” value was inactive: -14.8%.
In the case of `CCn1cc2nc(SCC(=O)N3CCCC3)n(Cc3ccccc3)c(=O)c2n1`, the “activity change, negative = inhibition” value is reported as inactive: 7.52%.
In the case of `CCCOc1ccc(-c2cc(C(=O)NCC3CCCO3)c3ccccc3n2)cc1` (configuration not stated), the Potency is reported as inconclusive: 31.6 µM [inhibitor, partial curve, poor fit].
In the case of `CCNC(=O)[C@@H]1C[C@H](n2cc(CN(C)C(=O)OC)nn2)CN1`, the Potency is reported as inconclusive: 8.91 µM [inhibitor, full curve, poor fit].
For `O=C(O)c1cn2ccnc(-c3ccccc3)c2n1`, the Potency was inconclusive: 17.8 µM [inhibitor, single point].
With `O=C(O)C1CCc2nnc(C3CCCN([S+](=O)([O-])c4cccc(C(F)(F)F)c4)C3)n21` (configuration not stated) the “activity change, negative = inhibition” value was inactive: -7.99% [at 115 µM].
For `COc1ccc(-c2nc(C#N)c(N(C)CCC#N)o2)cc1`, the Potency was inconclusive: 7.94 µM [inhibitor, partial curve, poor fit].
In the case of `COCCCNc1ccc2nnc(-c3ccc(F)cn3)n2n1`, the Potency is reported as inconclusive: 31.6 µM [inhibitor, single point].
For `CCCCOc1ccccc1C(=O)Nc1ccc(OCCC)c2ncccc12`, the Potency was inconclusive: 31.6 µM [inhibitor, single point].
In the case of `COc1cc(NC(=O)Cn2c(=O)n(Cc3ccco3)c(=O)c3sc4ccccc4c32)cc(OC)c1`, the Potency is reported as inconclusive: 15.8 µM [inhibitor, partial curve, poor fit].
For `C=CCSc1nc2c(c(=O)[nH]c(=O)n2C)n1CCOC`, the “activity change, negative = inhibition” value was inactive: -14.6%.
`Cc1nc(NS(=O)(=O)c2ccc(Cl)s2)c2c3c(sc2n1)CCCC3` was tested, and the Potency was inconclusive: 28.2 µM [inhibitor, single point].
In the case of `O=C(CCC[C@@H]1[C@H]2CCCN3CCC[C@@H](CN1C(=O)c1ccccc1)[C@@H]23)Nc1ccc(F)cc1F`, the Potency is reported as inconclusive: 39.8 µM [inhibitor, partial curve, poor fit].
In the case of `COCCCNc1oc(/C=C/c2cc(OC)c(OC)c(OC)c2)nc1C#N`, the Potency is reported as inconclusive: 5.01 µM [inhibitor, full curve, poor fit].
In the case of `CN1CCc2c(sc3c2C(=O)NC(c2ccc(OC(=O)c4ccc(C(C)(C)C)cc4)cc2)N3)C1` (configuration not stated), the Potency is reported as inconclusive: 14.1 µM [inhibitor, partial curve, poor fit].
For `Cc1cccc(CNc2nc3ccccc3nc2C)c1`, the Potency was inconclusive: 31.6 µM [inhibitor, partial curve, poor fit].
In the case of `CC(=O)N(Cc1cc2cc(C)ccc2[nH]c1=O)CC(C)C`, the Potency is reported as inconclusive: 39.8 µM [inhibitor, single point].
`Cc1nc2scc(C)n2c(=O)c1S(=O)(=O)Nc1ccc(N2CCOCC2)c(Cl)c1` was tested, and the Potency was inconclusive: 15.8 µM [inhibitor, partial curve, poor fit].
In the case of `CCC(C(=O)Nc1cc(OC)cc(OC)c1)n1nc(-c2ccc(C)c(C)c2)ccc1=O` (configuration not stated), the Potency is reported as inconclusive: 28.2 µM [inhibitor, partial curve, poor fit].
With `O=C(/C=C/c1ccco1)N(Cc1cccs1)C1CC1` the “activity change, negative = inhibition” value was inactive: -27.6%.
In the case of `COc1ccc(-n2c(=O)c3c(c4cc(OC)ccc4n3C)n(Cc3cccc(OC)c3)c2=O)cc1`, the Potency is reported as inconclusive: 1.12 µM [inhibitor, full curve, poor fit].
`COc1ccc(-c2cc3nc(C)c(CCC(=O)Nc4ccccc4C(C)=O)c(C)n3n2)c(OC)c1` was tested, and the Potency was inconclusive: 20 µM [inhibitor, partial curve, poor fit].
For `O=C(CCC1N=C2c3ccccc3N=C(SCc3ccc(F)cc3)N2C1=O)NCc1ccc(F)cc1` (configuration not stated), the Potency was inconclusive: 35.5 µM [inhibitor, partial curve, poor fit].
In the case of `CCc1cccc(C)c1NC(=O)Cn1ccn(-c2cccc(OC)c2)c(=O)c1=O`, the Potency is reported as inconclusive: 35.5 µM [inhibitor, single point].
`COC(=O)c1ccc(C2C3=C(CC(C)(C)CC3=O)Nc3cc4c(cc32)OCO4)cc1` (configuration not stated) was tested, and the Potency was inconclusive: 31.6 µM [inhibitor, partial curve, poor fit].
In the case of `CC(C)COc1nc2ccccc2nc1N1CCN(C)CC1`, the Potency is reported as inconclusive: 20 µM [inhibitor, partial curve, poor fit].
For `CCS(=O)(=O)N1CCCN(S(=O)(=O)c2ccccc2)CCC(=O)NCC1`, the Potency was inconclusive: 14.1 µM [inhibitor, partial curve, poor fit].
With `COc1ccc(NC(=O)c2cc3c(=O)[nH]c4ccccc4c3n2C)cc1Cl` the Potency was inconclusive: 3.16 µM [inhibitor, partial curve, poor fit].
In the case of `CCCN(C(=O)CCc1nc(-c2ccccc2F)no1)c1ccc(CC)cc1`, the Potency is reported as inconclusive: 31.6 µM [inhibitor, partial curve, poor fit].
With `O=c1oc2cc(O)ccc2cc1-c1nnc(Nc2ccccc2Cl)s1` the Potency was inconclusive: 22.4 µM [inhibitor, partial curve, poor fit].
In the case of `Cc1ccccc1NC(=O)c1sc2nc3c(cc2c1N)CCCC3`, the Potency is reported as inconclusive: 14.1 µM [inhibitor, partial curve, poor fit].
In the case of `CCOc1cc2[nH]c(=O)n(Cc3ccc(C(=O)NCCN(CC)CC)cc3)c(=O)c2cc1OCC`, the Potency is reported as inconclusive: 17.8 µM [inhibitor, single point].
In the case of `Cc1ccc(CNc2oc(-c3ccc(F)cc3)nc2C#N)cc1`, the Potency is reported as inconclusive: 1.78 µM [inhibitor, partial curve, poor fit].
With `COc1ccc(C2Cn3nnc(-c4nc(-c5cccc(C)c5)no4)c3CO2)cc1` (configuration not stated) the Potency was inconclusive: 20 µM [inhibitor, partial curve].
`CCCCn1nc(C(=O)Nc2ccc(OC)c(OCCOC)c2)c2ccccc2c1=O` was tested, and the “activity change, negative = inhibition” value was inactive: -16.1%.
In the case of `COc1cccc(NC(=O)CSc2nc3ccccc3nc2N2CCOCC2)c1`, the Potency is reported as inconclusive: 35.5 µM [inhibitor, single point].
In the case of `CC(Oc1cccc(Br)c1)C(=O)NNC(=O)c1ccc2c(c1)NC(=O)CCS2` (configuration not stated), the “activity change, negative = inhibition” value is reported as inactive: -28.7%.
For `CN(CC(=O)Nc1cccc(C(F)(F)F)c1)S(=O)(=O)c1ccc2[nH]c3c(c2c1)CCCC3`, the Potency was inconclusive: 15.8 µM [inhibitor, partial curve, poor fit].
With `COc1ccc(-c2cc(N3CCCN(C(=O)c4ccc(OC)c(F)c4)CC3)n[nH]2)cc1` the “activity change, negative = inhibition” value was inactive: -24.4%.
`CCn1cc(CN2CCN(C(=O)c3ccsc3)CC2)ccc1=O` was tested, and the Potency was inconclusive: 14.1 µM [inhibitor, partial curve].
For `O=C(NC1CCCC1)c1ccc(-c2ccc(N3CCCCC3)nc2)cc1`, the Potency was active: 11.2 µM.
With `Cc1ncc2c(c1CNC(=O)c1cccc(N3CCOCC3)c1)CCNC2` the Potency was inconclusive: 25.1 µM [inhibitor, single point].
For `CCOc1ccc(-c2ccnc(NC[C@@H]3CCCO3)n2)cc1C(=O)O`, the Potency was active: 22.4 µM.
